Data published in the supplement of paper PMC8512760.
This is one part of the list. Single values are uncertain, as repeats are few or missing.

Columns and labels:
Test in all cases: cell viability relative to vehicle (% of vehicle); basal-like triple-negative breast cancer lines; higher = less cytotoxic
Details in all cases: 10 µM; 72 h
[1] = system: HCC-1143
[2] = system: HCC-1187
[3] = system: MDA-468
[4] = system: SUM-149
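Note: stably firefly luciferase-GFP labeled cells in 96-well plates, viability read as luciferase photon flux after d-luciferin addition, treated wells normalized to vehicle wells, single-dose high-throughput screen.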

Compound | cell viability [1] | cell viability [2] | cell viability [3] | cell viability [4]
CCOC(=O)C(CCc1ccccc1)NC(C)C(=O)N1CCCC1C(=O)O.O=C(O)C=CC(=O)O (centres undefined) [Enalapril Maleate] | 126 | 103 | 106 | 96.3
O=C1CCC(C(=O)N2CSCC2C(=O)O)N1 (centres undefined) [Pidotimod] | 93.6 | 105 | 121 | 123
CC(NCCCc1cccc(C(F)(F)F)c1)c1cccc2ccccc12.Cl (centres undefined) [Cinacalcet HCl] | 83.2 | 90.7 | 102 | 106
CCC1OC(=O)CC(O)C(C)C(OC2OC(C)C(OC3CC(C)(O)C(O)C(C)O3)C(N(C)C)C2O)C(CC=O)CC(C)C(=O)C=CC(C)=CC1COC1OC(C)C(O)C(OC)C1OC.O=C(O)C(O)C(O)C(=O)O (centres undefined) [Tylosin tartrate] | 96.4 | 111 | 94.2 | 111
CCOC(=O)C1=C(C)NC(C)=C(C(=O)OCC)C1c1ccccc1C=CC(=O)OC(C)(C)C [Lacidipine] | 79.6 | 80.3 | 111 | 136
CC[C@]1(O)C[C@H]2CN(CCc3c([nH]c4ccccc34)[C@@](C(=O)OC)(c3cc4c(cc3OC)N(C=O)[C@H]3[C@@](O)(C(=O)OC)C(OC(C)=O)[C@]5(CC)C=CCN6CC[C@]43C65)C2)C1.O=S(=O)(O)O (some centres undefined) [Vincristine] | 62.7 | 53.5 | 109 | 116
CN1CCCC1CCOC(C)(c1ccccc1)c1ccc(Cl)cc1.O=C(O)C=CC(=O)O (centres undefined) [Clemastine Fumarate] | 86.9 | 93.2 | 80.2 | 68.9
O=C(C=CC=Cc1ccc2c(c1)OCO2)N1CCCCC1 [Piperine] | 165 | 105 | 169 | 170
CC1=CC(=O)c2ccccc2C1=O [Menadione] | 76.8 | 109 | 85.5 | 93.5
Cl.O=C(Nc1ccccc1)OCC(CN1CCCCC1)OC(=O)Nc1ccccc1 (centres undefined) [Diperodon HCl] | 93 | 103 | 110 | 127
CC1(C)O[C@@H]2C[C@H]3[C@@H]4CCC5=CC(=O)C=C[C@]5(C)[C@@]4(F)[C@@H](O)C[C@]3(C)[C@]2(C(=O)CO)O1 [Triamcinolone Acetonide] | 87.4 | 124 | 180 | 195
CN(C)CCCN1c2ccccc2Sc2ccc(Cl)cc21.Cl [Chlorpromazine HCl] | 92.5 | 119 | 111 | 88
Nc1nc(=O)c2c([nH]1)NCC(CNc1ccc(C(=O)NC(CCC(=O)[O-])C(=O)[O-])cc1)N2C=O.O.O.O.O.O.[Ca+2] (centres undefined) [Leucovorin Calcium] | 75.1 | 81.8 | 78.8 | 83.5
CN1CC(=O)N2[C@H](c3ccc4c(c3)OCO4)c3[nH]c4ccccc4c3C[C@@H]2C1=O [Tadalafil] | 87.9 | 93.3 | 92.7 | 120
NC(CSCCCO)C(=O)O (centres undefined) [Fudosteine] | 84.9 | 83.3 | 112 | 83.4
N=C(N)NCCCC[C@@H]1NC(=O)CCSSC[C@@H](C(N)=O)NC(=O)[C@@H]2CCCN2C(=O)[C@H](Cc2c[nH]c3ccccc23)NC(=O)[C@H](CC(=O)O)NC(=O)CNC1=O [Eptifibatide] | 117 | 107 | 105 | 106
C#CC1(O)CCC2C3CCc4cc(OC)ccc4C3CCC21C (centres undefined) [Mestranol] | 78.8 | 103 | 179 | 106
Cc1cc(C)nc(NS(=O)(=O)c2ccc(N)cc2)n1 [Sulfamethazine] | 79.1 | 86.4 | 103 | 105
CCCc1nn(C)c2c(=O)nc(-c3cc(S(=O)(=O)N4CCN(C)CC4)ccc3OCC)[nH]c12.O=C(O)CC(O)(CC(=O)O)C(=O)O [Sildenafil Citrate] | 95 | 83.7 | 79.7 | 134
O=S(=O)([O-])Oc1ccc(C(c2ccc(OS(=O)(=O)[O-])cc2)c2ccccn2)cc1.[Na+].[Na+] [Sodium Picosulfate] | 85.2 | 80.8 | 94.9 | 102
COc1ccc(C2Sc3ccccc3N(CCN(C)C)C(=O)C2OC(C)=O)cc1.Cl (centres undefined) [Diltiazem HCl] | 84.6 | 97.5 | 95.2 | 103
O=C(NCC1CN(c2ccc(N3CCOCC3=O)cc2)C(=O)O1)c1ccc(Cl)s1 (centres undefined) [Rivaroxaban] | 82.9 | 75.2 | 78.4 | 106
Clc1ccc(C(Cn2ccnc2)OCc2ccc(Sc3ccccc3)cc2)c(Cl)c1.O=[N+]([O-])O (centres undefined) [Fenticonazole Nitrate] | 90.1 | 85 | 93.1 | 95.7

Compound | cell viability [1] | cell viability [2] | cell viability [3] | cell viability [4]
CO[C@@]1(NC(=O)[C@H](C(=O)[O-])c2ccc(O)cc2)C(=O)N2C(C(=O)[O-])=C(CSc3nnnn3C)CO[C@@H]21.[Na+].[Na+] [Moxalactam (sodium salt)] | 111 | 103 | 109 | 108
CC(=O)Nc1cccc(-n2c(=O)n(C3CC3)c(=O)c3c(Nc4ccc(I)cc4F)n(C)c(=O)c(C)c32)c1 | 131 | 64.3 | 116 | 85.8
Nc1ccc(C(=O)NCC(=O)[O-])cc1.[Na+] [Sodium 4-amiropparaty Hyalrate] | 75.8 | 91.2 | 120 | 131
CN(C)CC(c1ccc(O)cc1)C1(O)CCCCC1 (centres undefined) [Desvenlafaxine] | 69.6 | 99.6 | 108 | 98.6
CCOC(=O)OC1(C(=O)OCCl)CCC2C3CCC4=CC(=O)C=CC4(C)C3C(O)CC21C (centres undefined) [Loteprednol etabonate] | 121 | 129 | 135 | 159
CC(C)(C)NC(=O)NC(C(=O)N1CC2C(C1C(=O)NC(CC1CCC1)C(=O)C(N)=O)C2(C)C)C(C)(C)C (centres undefined) [Boceprevir] | 85.5 | 80.4 | 78.9 | 140
CC12CCC3c4ccc(O)cc4CCC3C1CC(O)C2O (centres undefined) [Estriol] | 70.1 | 112 | 91.5 | 103
COc1cc(Nc2nc3ccccc3nc2NS(=O)(=O)c2ccc(NC(=O)c3ccc(C)c(OC)c3)cc2)cc(OC)c1 | 86.6 | 133 | 74.2 | 88.2
CC[N+](CC)(CC)CCOc1cccc(OCC[N+](CC)(CC)CC)c1OCC[N+](CC)(CC)CC.[I-].[I-].[I-] [Gallamine Triethiodide] | 75.3 | 84.8 | 120 | 101
COc1cc2nc(N(C)CCCNC(=O)C3CCCO3)nc(N)c2cc1OC.Cl (centres undefined) [Alfuzosin HCl] | 81.8 | 82.8 | 91.4 | 104
CC(=O)C1CCC2C3CCC4=CC(=O)CCC4(C)C3CCC12C (centres undefined) [Progesterone] | 103 | 133 | 121 | 114
Cn1c(=O)c2[nH]cnc2n(C)c1=O [Theophylline] | 74.2 | 78 | 101 | 80.6
CCCC1O[C@@H]2C[C@H]3[C@@H]4CCC5=CC(=O)C=C[C@]5(C)[C@H]4[C@@H](O)C[C@]3(C)[C@]2(C(=O)CO)O1 (some centres undefined) [Budesonide] | 83.9 | 90.8 | 161 | 155
CO[C@H]1C(=O)[C@]2(C)[C@@H](OC)C[C@H]3OC[C@@]3(OC(C)=O)[C@H]2[C@H](OC(=O)c2ccccc2)[C@]2(O)C[C@H](OC(=O)[C@H](O)[C@@H](NC(=O)OC(C)(C)C)c3ccccc3)C(C)=C1C2(C)C [Cabazitaxel] | 83.9 | 26.8 | 71.5 | 185
c1coc(CNc2ncnc3nc[nH]c23)c1 [Kinetin] | 112 | 124 | 90.2 | 149
O=C(O)C1=CC(=NNc2ccc(S(=O)(=O)Nc3ccccn3)cc2)C=CC1=O [Sulfasalazine] | 110 | 76.3 | 101 | 145
N=C(N)c1ccc(OCCCCCOc2ccc(C(=N)N)cc2)cc1.O=S(=O)(O)CCO.O=S(=O)(O)CCO [Pentamidine isethionate] | 74.1 | 75 | 69.8 | 125
CC12CC3CC(C)(C1)CC(N)(C3)C2.Cl [Memantine hydrochloride] | 78.6 | 96.7 | 131 | 113
NC1CN(c2c(F)cc3c(=O)c(C(=O)O)cn(C4CC4F)c3c2Cl)CC12CC2.O (centres undefined) [Sitafloxacin Hydrate] | 80.8 | 61.8 | 81.3 | 117
Cc1cccc(N(C)C(=S)Oc2ccc3ccccc3c2)c1 [Tolnaftate] | 94.9 | 87.2 | 111 | 107
CC(CCC(=O)O)C1CCC2C3CCC4CC(O)CCC4(C)C3CC(O)C12C (centres undefined) [Deoxycholic acid] | 77.3 | 81.5 | 115 | 108
CNC(=O)CN(CCN(CCN(CC(=O)[O-])CC(=O)NC)CC(=O)[O-])CC(=O)[O-].O.[Gd+3] [Gadodiamide] | 64.6 | 87.5 | 95.2 | 86.1
CC/C(=C(\c1ccccc1)c1ccc(OCCN(C)C)cc1)c1ccccc1 [Tamoxifen] | 80.4 | 102 | 128 | 125
